About 14,000 (4.5%) of roughly 310,000 compounds showed an effect of 50% or more. Effects have a minus sign here. The list shows a part of the results.
target: human ether-à-go-go-related gene (hERG) potassium channel (human, UniProt Q12809); experiment: primary screen, population patch clamp on CHO cells stably expressing hERG
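Further: peak tail current of the secondary pulse compared with the same well before compound.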

Sequence of human ether-à-go-go-related gene (hERG) potassium channel (Q12809 whole entry, looked up): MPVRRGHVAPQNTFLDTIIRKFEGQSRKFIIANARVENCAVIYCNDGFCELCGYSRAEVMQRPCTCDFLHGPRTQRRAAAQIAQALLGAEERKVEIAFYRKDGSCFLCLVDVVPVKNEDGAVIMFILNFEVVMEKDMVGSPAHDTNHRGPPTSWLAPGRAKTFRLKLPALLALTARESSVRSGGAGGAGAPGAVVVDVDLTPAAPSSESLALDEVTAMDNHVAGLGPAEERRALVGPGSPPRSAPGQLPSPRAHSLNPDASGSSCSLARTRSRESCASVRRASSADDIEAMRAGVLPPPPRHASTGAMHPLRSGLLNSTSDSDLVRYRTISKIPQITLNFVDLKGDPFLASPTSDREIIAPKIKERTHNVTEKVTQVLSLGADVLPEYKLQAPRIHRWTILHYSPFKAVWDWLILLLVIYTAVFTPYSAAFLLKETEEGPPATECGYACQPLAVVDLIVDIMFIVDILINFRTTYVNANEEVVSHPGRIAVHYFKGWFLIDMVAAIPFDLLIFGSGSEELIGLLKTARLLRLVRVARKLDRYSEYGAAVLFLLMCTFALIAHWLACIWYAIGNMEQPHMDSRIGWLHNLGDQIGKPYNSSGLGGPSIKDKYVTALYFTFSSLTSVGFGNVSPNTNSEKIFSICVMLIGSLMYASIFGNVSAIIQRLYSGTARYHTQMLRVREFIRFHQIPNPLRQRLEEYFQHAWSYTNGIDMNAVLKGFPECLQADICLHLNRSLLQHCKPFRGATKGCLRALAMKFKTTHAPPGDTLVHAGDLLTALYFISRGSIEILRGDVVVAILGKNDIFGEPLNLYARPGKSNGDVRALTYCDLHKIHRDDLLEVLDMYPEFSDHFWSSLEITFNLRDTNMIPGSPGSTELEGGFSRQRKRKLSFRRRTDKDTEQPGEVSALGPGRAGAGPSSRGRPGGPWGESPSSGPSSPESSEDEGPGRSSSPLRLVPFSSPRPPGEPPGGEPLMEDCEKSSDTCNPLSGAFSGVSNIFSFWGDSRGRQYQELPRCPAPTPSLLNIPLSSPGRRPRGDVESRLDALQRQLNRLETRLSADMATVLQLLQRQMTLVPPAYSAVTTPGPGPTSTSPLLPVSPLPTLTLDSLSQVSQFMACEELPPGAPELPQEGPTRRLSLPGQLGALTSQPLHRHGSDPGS

Row | SMILES | hERG current change (%, negative = inhibition) at 10uM [%]
1 | COc1cccc(C=Nc2cc(C)on2)c1O | 9.02
2 | COc1ccc(NC(=O)c2ccc(OC(F)F)cc2)cc1Cl | -16.7
3 | CC(C)CCNC(=O)CCCOc1ccccc1 | -4.92
4 | O=C(CS(=O)(=O)Cc1ccccc1)Nc1nnc(C2CCCCC2)s1 | -21.7
5 | Cc1ccc(-c2ccc(/C=N/NC(=O)CN3CCOCC3)o2)cc1[N+](=O)[O-] | -29.5
6 | CCc1nnc(NC(=O)C2c3ccccc3Oc3ccccc32)s1 | 3.2
7 | Cc1cc(C)cc(N(CC(=O)Nc2ccccc2-c2ccccc2)S(=O)(=O)c2ccccc2)c1 | 13.1
8 | CCOC(=O)C1=C(O)/C(=C/c2cn(CC(=O)NCC3CCCO3)c3ccccc23)SC1=Nc1ccc(C)cc1 (stereo not shown) | -0.845
9 | CCN(CC(=O)Nc1ccc(OC(F)F)cc1)C1CCCCC1 | -73.5
10 | C/C(=N\NC(=O)C1CCCN(S(=O)(=O)c2ccccc2)C1)c1cccnc1 (stereo not shown) | -6.82
11 | COc1ccc(CN2C(=O)NC3(CCCc4ccccc43)C2=O)cc1F (stereo not shown) | -14.4
12 | COCCCN(C(=O)CC1OC(=O)c2ccccc21)c1c(N)n(Cc2ccccc2)c(=O)[nH]c1=O (stereo not shown) | 12
13 | CCCn1c(N2CCN(CC(=O)NCc3cccs3)CC2)nc2ccccc21 | -74.7
14 | CC(C)(O)C#Cc1ccccc1C(=O)NC(CC(N)=O)C(=O)O (stereo not shown) | 14.3
15 | CCc1nnc(NC(=O)CSc2nnc(-c3cccnc3)n2CCc2ccccc2)s1 | -2.07
16 | O=C(NCCOc1ccccc1)c1cc([N+](=O)[O-])ccc1N1CCOCC1 | -62.1
17 | CC1(C)CC(=O)C2=C(C1)NCN(CCCN1CCOCC1)C2 | 20.4
18 | CCCCn1c(SCC(=O)NC(C)(C)C)nnc1-c1ccco1 | -1.57
19 | O=c1[nH]c(N/N=C\c2ccc3c(c2)OCO3)nc2ccccc12 | -70.7
20 | CCc1[nH]nc2c1C(c1ccc(C)o1)C(C#N)=C(N)O2 (stereo not shown) | 3.55
21 | CCOC(=O)C1C2C=CC3(CN(Cc4cccs4)C(=O)C13)O2 (stereo not shown) | 1.73
22 | Cc1cnc(NC(=O)C2=C([O-])c3ccccc3S(=O)(=O)N2C)s1.[Na+] | 18

Row | SMILES | hERG current change (%, negative = inhibition) at 10uM [%]
23 | CCC(=O)N(CCCN(C)C)c1nc(-c2cc(OC)ccc2OC)cs1.Cl | -37.3
24 | O=S(=O)(NCCC1CC1(Cl)Cl)c1ccccc1 (stereo not shown) | 4.4
25 | O=C(NCCc1ccc(Cl)cc1)c1ccc2[nH]c(=O)c(=O)[nH]c2c1 | 18.2
26 | O=C(Cn1c(CC(=O)N2CCOCC2)nc2ccccc21)Nc1ccc2c(c1)OC(F)(F)O2 | -20
27 | CN(C(=O)COC(=O)c1cc2ccccc2cc1O)c1c(N)n(Cc2ccccc2)c(=O)[nH]c1=O | 4.78
28 | O=C(O)C1CCCN1S(=O)(=O)c1ccc(Br)s1.O=C(O)[C@@H]1CCCN1 (stereo not shown) | 15.2
29 | COC(=O)c1c(NC(=O)CSc2nnnn2-c2ccccc2)sc2c1CCC(C)C2 (stereo not shown) | 20
30 | NS(=O)(=O)c1ccc(NC(=O)COC(=O)CCC2CCCCC2)cc1 | -5.65
31 | Cc1cc(C)cc(NC(=S)N2CCCC2)c1 | 17.4
32 | COc1ccc(CN(C)Cc2c(O)ccc3ccccc23)cc1 | -24.7
33 | CCC(=O)Nc1cccc(NC(=S)NC(=O)c2cc3ccccc3o2)c1 | 28.2
34 | CN1C2=NCCN2C(=O)c2cc(Cl)ccc21 | 9.98
35 | Cc1cc(C(=O)NP(=O)(N2CCOCC2)N2CCOCC2)c(C)n1C1CC1 | 12.6
36 | CC(Sc1nnc2ccccn12)C(N)=O (stereo not shown) | 2.79
37 | CC1CCC(=C(C#N)C(=O)Nc2cccc(Cl)c2)CC1 (stereo not shown) | -2.6
38 | Cn1c(=O)c(C(=O)COc2ccc(C#N)cc2)c(N)n(Cc2ccccc2)c1=O | -13.4
39 | CCCC(=O)Nc1c(-c2ccccc2Cl)c(=O)c2ccccc2n1C | 35.3
40 | CCOC(=O)c1oc2ccc(S(=O)(=O)n3nc(-c4ccc(Cl)cc4)cc3N)cc2c1C | 3.58
41 | CC1(C)NC(=O)N(CCCCOc2ccccc2[N+](=O)[O-])C1=O | 3.42
42 | CC(NC(=O)c1cccnc1)C(c1cccs1)N1CCN(C)CC1 (stereo not shown) | 11.2
43 | Cc1cc(C)cc(NC(=O)COC(=O)c2ccc(CN3CCCC3=O)cc2)c1 | -16.1
44 | CCn1c(SCC(=O)Nc2nccs2)nnc1-c1ccccn1 | -0.703

Row | SMILES | hERG current change (%, negative = inhibition) at 10uM [%]
45 | COc1ccccc1C(=O)NNC(=O)C(=O)Nc1ccc(C)cc1 | 23.4
46 | Cn1c(=O)c(=O)n(C)c2cc(S(=O)(=O)N3CCCC3C(=O)NCc3cccnc3)ccc21 (stereo not shown) | 21.4
47 | CCOC(=O)C1CCN(S(=O)(=O)c2ccc(OCC)cc2)CC1 | -25.4
48 | CN(C(=O)CSc1nnc(Nc2ccccc2)s1)c1c(N)n(Cc2ccccc2)c(=O)[nH]c1=O | 14.4
49 | O=C(Nc1ccc(Cl)cc1)[C@@H]1[C@@H]2C(=O)N(c3cccc(F)c3)C(=O)[C@@H]2[C@H]2C=CC=NN21 | -9.36
50 | COc1ccc(C2C(=O)c3ccccc3C2=O)c(OC)c1 | 7.12
51 | CCOc1ccccc1C1C(C(=O)OC)=CN(C)C=C1C(=O)OC | 4.08
52 | O=S(=O)(Cc1ccccc1)N1CCN(c2ccccc2)CC1 | 12
53 | CN1C(C(=O)NCc2ccccc2)CC2Cn3c(nc4cc(Cl)c(Cl)cc43)C21 (stereo not shown) | -65.6
54 | COc1ccc(N(CC(=O)NC(C)c2ccccc2)S(=O)(=O)c2ccc(C)cc2)cc1 (stereo not shown) | -22.1
55 | O=C(Nc1ccccc1C(=O)N1CCCCCC1)c1ccccc1 | -2.15
56 | COCCNCC#CCOc1ccc(OC)cc1 | -0.335
57 | COc1ccc(NC(=O)COC(=O)/C=C/C(=O)OCC(=O)Nc2ccc(OC)c(Cl)c2)cc1Cl | 26.1
58 | O=C(NC(Cc1ccccc1)C(=O)O)/C(=C/c1ccc([N+](=O)[O-])cc1)NC(=O)c1ccc(Br)o1 (stereo not shown) | 11.5
59 | COc1cc(/C=N/Nc2ccc(Cl)c(C(=O)O)c2)ccc1OC(=O)c1ccc(F)cc1 | -6.69
60 | O=C(O)C1Cc2[nH]cnc2C(c2ccccc2O)N1 (stereo not shown) | 12.1
61 | CCc1n[nH]c2c1/C(=N\O)CC(c1ccccc1)C2 (stereo not shown) | -25.1
62 | O=C(O)c1cnn2c1NC(c1cccs1)CC2C(F)(F)F (stereo not shown) | 3.61
63 | C=CCOc1ccc(/C=C/C(=O)OCC(=O)NC(C)c2ccc(F)cc2)cc1 (stereo not shown) | -0.664
64 | Cn1c(=O)c(=O)n(C)c2cc(S(=O)(=O)CCC(=O)N3CCCCC3)ccc21 | 11.5
65 | COc1ccc(NC2CCCN(C(=O)COc3ccc(Cl)cc3C)C2)cc1OC (stereo not shown) | -11
66 | Cc1ccc(NC(CC(=O)c2ccccc2)c2ccc(F)cc2)cc1 (stereo not shown) | -3.39

Row | SMILES | hERG current change (%, negative = inhibition) at 10uM [%]
67 | COc1cccc(C(=O)c2sc(NC(C)C)nc2N)c1 | -14.2
68 | Cc1c(Cl)cnc(NC(=O)COC(=O)CCS(=O)(=O)c2ccccc2)c1Cl | -1.19
69 | CC(C)=NOC(=O)c1c(C)noc1-c1snnc1C | 13.4
70 | CCOc1ccc(N2C(=O)C3C(c4ccccc4)=NN(c4ccccc4)C3C2=O)cc1 (stereo not shown) | -2.93
71 | CCCCc1ccc(NC(=O)Nc2cnccn2)cc1 | -43.8
72 | CCCOc1ccc(/C=N/NC(=O)C2CCCN2S(=O)(=O)c2ccc(Cl)cc2)cc1 (stereo not shown) | -2.23
73 | CC[C@H](C)Cc1cn([C@@H](CCCN=C(N)N)C(=O)NCCCCCCCCCCC(=O)N2CCNCC2)nn1 | 10.2
74 | Cc1ccc(COc2coc(CO)cc2=O)cc1 | -17.7
75 | COc1ccccc1Nc1nc2c(s1)CCC2 | -3.3
76 | Cc1ccc(S(=O)(=O)NC(=O)N(C)C2CCCCC2)cc1 | 9.07
77 | CCOC(=O)c1nc2ccccc2c(=O)n1-c1ccc(C)cc1C | -5.54
78 | O=C(NCCc1c[nH]c2ccccc12)c1cnc2n(c1=O)CCS2 | 11.2
79 | CCOC(=O)c1sc(NC(=O)/C=C/c2cnn(CC)c2C)c(C(=O)OCC)c1C | 12.6
80 | O=C1CNC(=S)N1Cc1ccc(F)cc1 | 11.3
81 | CCOC(=O)C1C(C)N=C2SCC(=O)N2C1c1cccc(Br)c1 (stereo not shown) | -12.6
82 | Cc1cc2c(=O)n(Cc3ccco3)c(SCC(=O)N3CCCc4ccccc43)nc2s1 | -42.4
83 | Cc1cc(C)cc(C(=O)OCC(=O)NC(=O)NC2CCCC2)c1 | 7.16
84 | CCc1ccccc1NC(=O)c1nnn(CC(=O)Nc2cccc(C)c2C)c1N | 2.68
85 | COCCNC(=O)CNS(=O)(=O)c1ccc2nc(C)sc2c1 | 12.9
86 | Cc1cc(OCC(=O)N2CCC(C(N)=O)CC2)c2c(C)c(C)c(=O)oc2c1 | 12.9
87 | Cn1cnc2c1c(=O)n(Cc1cccc(Br)c1)c(=O)n2C | -27.8
88 | Cc1ccc(S(=O)(=O)NCCC(=O)N2CCN(c3cccc(Cl)c3)CC2)cc1C | 4.35
